Assay results from PubChem BioAssay AID485313 (National Center for Advancing Translational Sciences (NCATS), 2010).
Hit rate of the full screen: of about 320,000 compounds, about 7,600 (2.4%) were called active. Inconclusive results, whose numbers are uncertain, are shown with a selection of clear calls. Calls follow the shape of the dose curve; as a rule, active = well fitted activation curve with a large enough effect; inconclusive = small, poorly fitted or top-dose-only effect; inactive = no such curve, though single readings can be large or run the other way. Potencies of inconclusive entries are left out as doubtful fits.

Assay: qHTS Assay for NPC1 Promoter Activators; also: nearly all actives have a fitted effect of over 60% in size;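 as to activation: reporter is driven by a mutant NPC1 promoter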
Conditions: Huh7 NPC1 promoter luciferase reporter, 24 h; series mostly up to 9.22 µM
Summary of the method: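 Readout is luciferase luminescence, reflecting NPC1 promoter activation in stably transfected Huh7 cells after 24 h compound exposure at 37 °C in reduced-serum medium with 10% FBS.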
Potency is read from the fitted curve at half-maximal effect; tags tell the direction and shape of the fitted curve.

Row | SMILES | Potency
1 | O=C(Nc1ccc2c(c1)CCC2)c1ccccc1 | active: 1.26 µM
2 | CCCC(=O)C1=C(O)C(C(=O)OC)C(C)(C)CC1=Nc1ccc(N)cc1 (stereo not drawn) | inactive
3 | Cc1ccc(NC(=O)C(=O)NCC2CCCO2)cc1 (stereo not drawn) | inconclusive [activator, partial curve]
4 | COc1ccc2oc(C(=O)C3CC3)c(N)c2c1 | inconclusive [activator, single point]
5 | C(=C\c1nccc2c1[nH]c1ccccc12)/c1ccccc1 | inconclusive [activator, partial curve]
6 | Cc1cccc(NC(=O)c2n[nH]c([N+](=O)[O-])c2Br)c1C | active: 0.794 µM
7 | COc1cccc(NC(=O)c2csc3c2CCCC3)c1 | inconclusive [activator, single point]
8 | CCOC(=O)C1CCN(C(=O)c2cc3ccc(OC)cc3[nH]2)CC1 | inconclusive [activator, partial curve]
9 | Cc1ccc(SCC(=O)Nc2nccs2)cc1 | inconclusive [activator, partial curve]
10 | O=C(CNc1ccc(Br)cc1)c1ccc(Br)s1 | inconclusive [activator, partial curve]
11 | COc1ccc(C2=NN3C(=O)c4c(ccc(OC)c4OC)C3C2)cc1 (stereo not drawn) | inactive
12 | Cc1cccc(NC(=O)CSc2nnc(CNC(=O)c3ccco3)n2C)c1C | inactive
13 | CCCc1cc(=O)[nH]c(N/N=C/C=C\c2ccccc2)n1 | inactive
14 | Cn1nccc1C(=O)Nc1ccn(C23CC4CC(CC(C4)C2)C3)n1 | inactive
15 | Cc1ccc(N=Cc2cc(C)n(C3CCCC3)c2C)cc1 | inactive
16 | O=C(CCC1COc2ccccc2O1)NCC1COc2ccccc2O1 (stereo not drawn) | inactive
17 | Fc1ccc(-n2nnc(-c3ccnc4ccccc34)n2)cc1 | inactive
18 | O=C(/C=C/c1ccc(F)cc1)N1CCc2ccccc2C1 | inconclusive [activator, partial curve]
19 | O=C(N/N=C/c1ccc(OCc2ccccc2)cc1)c1cccs1 | inconclusive [activator, partial curve]
20 | CCc1ccc(OCC(=O)Nc2ccc(N3CCN(S(C)(=O)=O)CC3)cc2)cc1 | inactive
21 | CCCCSc1nnc2c(n1)[nH]c1ccccc12 | inconclusive [activator, single point]
22 | CCCOc1cccc(C(=O)NC(=S)Nc2ccccc2)c1 | inconclusive [activator, single point]
23 | Cc1nn(Cc2c(F)c(F)c(F)c(F)c2F)c(C)c1NC(=O)c1cccc(COc2ccc(Cl)cc2)c1 | inconclusive [activator, full curve]
24 | Nn1c(SCc2ccccc2)nnc1-c1ccccn1 | inconclusive [activator, partial curve]
25 | Cc1ccccc1NC(=S)NCC1CCC(CNC(=S)Nc2ccccc2C)CC1 (stereo not drawn) | inactive
26 | CCC(=O)Nc1nc2ccc3nc(C)sc3c2s1 | inconclusive [activator, partial curve]

Row | SMILES | Potency
27 | Cn1ccsc1=NC(=O)c1ccc(S(=O)(=O)C(F)F)cc1 | inconclusive [activator, partial curve]
28 | CNC(=O)c1ccc(NC(=O)Nc2ccccc2)cc1 | inconclusive [activator, single point]
29 | COc1ccc(/C=C/C(=O)NC2=NCCS2)cc1OC | active: 2.82 µM
30 | CC(=O)Cn1c(CN2CCN(C(=O)c3ccco3)CC2)nc2c1c(=O)n(C)c(=O)n2C | inactive
31 | CC(=O)c1sc(NC(=O)C2COc3ccccc3O2)nc1C (stereo not drawn) | active: 0.447 µM
32 | Cc1ccc(-c2ocnc2C(=O)Nc2nc(C)cs2)cc1 | inconclusive [activator, single point]
33 | COC(=O)c1ccc(NC(=O)NC2CCCCC2)cc1 | inconclusive [activator, single point]
34 | Cc1nc(N)nc(COc2ccccc2)n1 | inconclusive [activator, partial curve]
35 | Cc1ccc([N+](=O)[O-])c(NC2OC(CO)C(O)C2O)c1 (stereo not drawn) | inactive
36 | Cc1snc2sc(C(=O)c3ccc(F)cc3)c(N)c12 | inconclusive [activator, partial curve]
37 | Cn1cc(C(=O)c2ccc(Cl)cc2Cl)cc1C(=O)N/N=C(\N)COc1ccc(F)cc1 | inactive
38 | CN(CC(=O)NC(c1ccccc1)c1ccccc1)Cc1nc2ccccc2c(=O)[nH]1 | inactive
39 | Cc1ccc(NC(=O)c2cnc(SCC(=O)NCC3CCCO3)n(C)c2=O)cc1C (stereo not drawn) | inconclusive [activator, partial curve]
40 | CNC1=C(N(C(C)=O)c2ccc(Br)cc2)C(=O)c2ccccc2C1=O | inactive
41 | Cc1ccc(N(CC(=O)Nc2ccc3c(c2)OCCO3)S(=O)(=O)c2c(C)noc2C)cc1 | inactive
42 | CN(C)c1ccc(/C=C/C(=O)c2cc(Cl)ccc2O)cc1 | inconclusive [activator, partial curve]
43 | CCOc1ccc(NC(=O)CCc2c(C)nn(-c3ccc(N4CCCCC4)nn3)c2C)cc1 | inconclusive [activator, single point]
44 | Cc1ccc2c(COC(=O)c3n[nH]c4ccccc34)cc(=O)oc2c1 | inconclusive [activator, single point]
45 | CN(C)S(=O)(=O)c1cccc(NC(=S)N/N=C/c2cc(Br)ccc2O)c1 | inactive
46 | CC(C)CNC(=O)C1CCN(S(=O)(=O)c2ccc(-n3cnnn3)cc2)CC1 | inactive
47 | Cc1ccc(N2Cc3ccccc3C2=O)cc1 | active: 0.447 µM
48 | O=C(N/N=C/c1cccc(F)c1)c1c(O)c2ccccc2[nH]c1=O | inconclusive [activator, partial curve]
49 | [N-]=[N+]=Nc1ccc(C(=O)CSC[C@H](NC(=O)CC[C@H](N)C(=O)O)C(=O)NCC(=O)O)cc1 | inactive
50 | O=C(CCN1C(=O)/C(=C\C=C\c2ccccc2)SC1=S)Nc1ccc(C(=O)O)cc1 | inconclusive [activator, single point]
51 | O=C(Nc1cccc(NC(=O)C2C3CC4OC(=O)C2C4C3)c1)c1ccccc1 (stereo not drawn) | inactive
52 | COCCCn1c(=O)c2sccc2n(Cc2cc(C(=O)OC)ccc2OC)c1=O | inactive

Row | SMILES | Potency
53 | CC(C)C(NC(=O)C1CCCCC1)C(=O)NC1CCN(Cc2ccccc2)CC1 (stereo not drawn) | inactive
54 | O=C(COc1ccc(Br)cc1CO)Nc1ccccc1F | inconclusive [activator, partial curve]
55 | CCOc1ccc(CNc2nc3ccccc3n2C)cc1 | active: 3.16 µM
56 | CCOC(=O)c1c(-c2ccc(C)o2)csc1NC(=O)CN(C)CC(=O)Nc1ccc(C)cc1 | inactive
57 | Cc1ccc2cc(CCNC(=O)c3ccco3)c(=O)[nH]c2c1C | active: 3.55 µM
58 | O=[N+]([O-])c1cccc(C2=NC(c3ccccc3)CO2)c1 (stereo not drawn) | inconclusive [activator, partial curve]
59 | Cc1cc(C)n(-c2cc(C(C)(C)C)nc3c(-c4ccccc4)cnn23)n1 | active: 2.51 µM
60 | COc1ccc(/C=N/n2c(C)cc(C)cc2=O)cc1 | inconclusive [activator, single point]
61 | Cc1cc(C)nc(NC(=S)NC(=O)c2ccccc2)n1 | inconclusive [activator, single point]
62 | N#CC(=C1CCCC1)c1nc(-c2cc3ccccc3oc2=O)cs1 | inconclusive [activator, single point]
63 | COc1ccc(-c2nc(N)nc(N)n2)c(O)c1 | inconclusive [activator, single point]
64 | CCOc1ccc(-c2nnc(SCC(=O)N3CCOCC3)o2)cc1 | inconclusive [activator, partial curve]
65 | COc1ccc(/C=N/N=C(\N)c2nonc2N)cc1OC | inconclusive [activator, single point]
66 | Cc1cc(NC(=O)c2ccc(S(=O)(=O)N(C)C)cc2)no1 | inactive
67 | O=C(CC(=O)c1ccccc1)Nc1ccc(Cl)cc1 | inconclusive [activator, single point]
68 | O=C(NNC1=NCCCCC1)Nc1cccc(Cl)c1 | inconclusive [activator, partial curve]
69 | S=C(Nc1ccc2c(c1)OCCO2)Nc1ccc2c(c1)OCO2 | inconclusive [activator, partial curve]
70 | O=C(CCNC(=O)c1ccccc1Cl)Nc1nc2ccccc2s1 | inconclusive [activator, single point]
71 | CC1CCCCC1NC(=O)CSc1nncs1 (stereo not drawn) | inactive
72 | Cc1ccc(NC(=O)Cc2noc3ccccc23)cc1 | inconclusive [activator, partial curve]
73 | O=C(NCc1ccccn1)c1cc(-c2ccc(-c3ccccc3)cc2)nc2ccccc12 | active: 2.24 µM
74 | O=C(Nc1ccc2c(c1)OCCO2)c1cncc(Br)c1 | active: 3.55 µM
75 | CC(=O)Oc1ccc(/C=C/c2nc3ccccc3c(=O)o2)cc1 | inconclusive [activator, partial curve]
76 | N=C(N)SCCc1ccc(CCSC(=N)N)cc1 | inconclusive [activator, partial curve]
77 | Cc1cc(C(=O)Nc2cccc(C(=O)O)c2)oc1C | inconclusive [activator, partial curve]
78 | CCc1nc2ccc(C(=O)NC3CCC(C)CC3)cc2nc1CC (stereo not drawn) | inconclusive [activator, single point]
